According to PubChem BioAssay (Tox21):
Several values for one entry are separate records, joined by “and”; a condition that tells them apart may be missing. Equal values may be shown once. The shares of active, inactive and inconclusive entries below differ from those in the screen. For some assays here: Potencies beside an inconclusive call are fits to weak or partial responses and may not hold up. Activity calls are given as the source filed them. Unless noted, the call rests on the fitted dose curve.

What was measured:
[1] = target: Peroxisome proliferator-activated receptor gamma (Homo sapiens) (UniProt P37231); experiment: qHTS assay to identify small molecule antagonists of the peroxisome proliferator-activated receptor gamma (PPARg) signaling pathway (AID 743191); settings: HEK293H PPARg-UAS-bla, beta-lactamase ratio, antagonist, 17 h; ratio activity, negative = inhibition: at 62.6 µM (top of the series) unless noted; further: nearly all actives have a fitted effect of over 30% in size; further: potency means the concentration at half of the fitted maximal effect; on ratio activity, negative = inhibition: on the % scale 0 is the no-effect control and ±100 the full control effect
In short: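 GeneBLAzer PPARg UAS-bla HEK293H cells, 5 h post-plating, exposed to compounds 17 h at 37C. LiveBLAzer B/G FRET substrate added for 1 h at room temperature; beta-lactamase reporter read by fluorescence intensity.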

[2] = qHTS assay for small molecule activators of the heat shock response signaling pathway (AID 743210; active means well fitted activation curve with a large enough effect in the signal ratio in the repeat runs, with a control signal flat, not every such curve was filed as active; inconclusive means weak or mixed curves; the % refers to the signal ratio; further: potency means the concentration at half of the fitted maximal effect); settings: HeLa HSE-bla reporter, beta-lactamase ratio, 5 h; activation: at 62.6 µM (top of the series)
In short: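 Following overnight attachment, HSE-bla HeLa cells received test compounds for 5 h at 37 C; beta-lactamase activity was then detected via FRET substrate fluorescence.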

[3] = target: Peroxisome proliferator-activated receptor delta (Homo sapiens) (UniProt Q03181); experiment: qHTS assay to identify small molecule antagonists of the peroxisome proliferator-activated receptor delta (PPARd) signaling pathway (AID 743215; active means well fitted inhibition curve with a large enough effect in the signal ratio in the repeat runs, not every such curve was filed as active; inconclusive means weak or mixed curves, or effect the other way; inactive means no such curve, though single readings can be large or run the other way; the % refers to the signal ratio;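 further: cells stimulated with agonist L165041 at 300 nM final during compound exposure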; further: potency means the concentration at half of the fitted maximal effect; on ratio activity, negative = inhibition: on the % scale 0 is the no-effect control and ±100 the full control effect); settings: HEK293H PPARd-UAS-bla, beta-lactamase FRET ratio, antagonist, 17 h; ratio activity, negative = inhibition: at 62 µM (top of the series) unless noted
In short: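 Here, a reporter line (HEK293H, beta-lactamase under a UAS) measures PPARd signaling. Compounds are tested against agonist L165041 at 300 nM final concentration over 17 h at 37 C, with fluorescence read after substrate.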

[4] = qHTS assay to identify small molecule agonists of the farnesoid-X-receptor (FXR) signaling pathway - cell viability counter screen (AID 743218; active means well fitted curve in the direction sought with a large enough effect in the repeat runs; inconclusive means weak or mixed curves; inactive means no such curve, though single readings can be large; an effect the other way counts as inactive or inconclusive; further: nearly all actives have a fitted effect of over 45% in size; further: potency means the concentration at half of the fitted maximal effect; on viability change, negative = cytotoxic: on the % scale 0 is the no-effect control and ±100 the full control effect); settings: FXR-bla HEK293T viability, CellTiter-Glo luminescence, 16 h; viability change, negative = cytotoxic: at 62.6 µM (top of the series) unless noted
In short: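 Quantitative HTS counter screen measuring ATP-based viability via CellTiter-Glo luminescence in HEK 293T cells carrying a UAS-driven beta-lactamase reporter, after 16 h compound exposure at 37 C.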

[5] = target: Vitamin D3 receptor (Homo sapiens) (UniProt P11473); experiment: qHTS assay to identify small molecule antagonists of the vitamin D receptor (VDR) signaling pathway (AID 743223; active means well fitted inhibition curve with a large enough effect in the signal ratio in the repeat runs, not every such curve was filed as active; inconclusive means weak or mixed curves, or effect the other way; inactive means no such curve, though single readings can be large or run the other way; the % refers to the signal ratio; further: potency means the concentration at half of the fitted maximal effect); settings: VDR-UAS-bla HEK293T, beta-lactamase FRET ratio, 16 h
In short: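 VDR-bla cells were plated, incubated 4 h at 37C, then given compound and 1alpha,25-dihydroxyvitamin D3 (3 nM final). After 16 h at 37C, LiveBLAzer B/G FRET substrate was added for 2 h at room temperature and fluorescence read.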

[6] = target: Peroxisome proliferator-activated receptor delta (Homo sapiens) (UniProt Q03181); experiment: qHTS assay to identify small molecule agonists of the peroxisome proliferator-activated receptor delta (PPARd) signaling pathway (AID 743212); settings: HEK293H PPARd-UAS-bla, beta-lactamase FRET ratio, 17 h; activation: at 62.6 µM (top of the series) unless noted; further: on the % scale 0 is the no-effect control and ±100 the full control effect
In short: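 Tox21 library screened in GeneBLAzer PPARd UAS-bla HEK293H cells. After compound treatment at 37 C, a FRET-based beta-lactamase substrate was applied for 2 h and fluorescence recorded.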

[7] = target: Vitamin D3 receptor (Homo sapiens) (UniProt P11473); experiment: qHTS assay to identify small molecule agonists of the vitamin D receptor (VDR) signaling pathway (AID 743222); settings: HEK293T VDR-UAS-bla, beta-lactamase FRET ratio, 16 h; activation: at 63.5 µM (top of the series) unless noted; further: potency means the concentration at half of the fitted maximal effect
In short: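 Tox21 cell reporter format: VDR-bla line, 16 h compound exposure in 5% CO2 at 37C, then fluorescence intensity after 2 h with LiveBLAzer B/G FRET substrate.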

[8] = qHTS assay for small molecule agonists of the antioxidant response element (ARE) signaling pathway - cell viability counter screen (AID 743203); settings: ARE-bla HepG2 viability, CellTiter-Glo luminescence, 16 h; viability change, negative = cytotoxic: at 73.3 µM (top of the series); further: nearly all actives have a fitted effect of over 55% in size; further: potency means the concentration at half of the fitted maximal effect
In short: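 ATP content via CellTiter-Glo luminescence served as the viability measure. Cells: ARE-bla HepG2, 2,000 per well. Exposure: 16 hrs, 37C/5% CO2.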

[9] = qHTS assay to identify small molecule antagonists of the peroxisome proliferator-activated receptor delta (PPARd) signaling pathway - cell viability counter screen (AID 743213; active means well fitted curve in the direction sought with a large enough effect in the repeat runs; inconclusive means weak or mixed curves; inactive means no such curve, though single readings can be large; an effect the other way counts as inactive or inconclusive; further: nearly all actives have a fitted effect of over 50% in size; further: potency means the concentration at half of the fitted maximal effect); settings: PPARd-bla HEK293H viability, CellTiter-Glo luminescence, 17 h; viability change, negative = cytotoxic: at 62 µM (top of the series) unless noted
In short: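 Viability counter-screen, qHTS format: PPARd-bla HEK293H, L165041 300 nM final, 17 h compound exposure at 37 C, CellTiter-Glo luminescence after 30 min RT.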

[10] = target: Bile acid receptor (Homo sapiens) (UniProt Q96RI1); experiment: qHTS assay to identify small molecule antagonists of the farnesoid-X-receptor (FXR) signaling pathway (AID 743217; active means well fitted inhibition curve with a large enough effect in the signal ratio in the repeat runs, not every such curve was filed as active; inconclusive means weak or mixed curves, or effect the other way; inactive means no such curve, though single readings can be large or run the other way; the % refers to the signal ratio; further: potency means the concentration at half of the fitted maximal effect); settings: HEK293T FXR-UAS-bla, beta-lactamase ratio, CDCA-stimulated, 16 h; activity change, negative = inhibition: at 62.6 µM (top of the series) unless noted
In short: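 Test compounds are pin-transferred onto FXR-bla HEK 293T cells, then chenodeoxycholic acid is added at 50 uM final. After 16 h at 37 °C, LiveBLAzer B/G substrate is applied for 2 h at room temperature and fluorescence read.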

[11] = qHTS assay for small molecule activators of the heat shock response signaling pathway - cell viability counter screen (AID 743209; active means well fitted curve in the direction sought with a large enough effect in the repeat runs; inconclusive means weak or mixed curves; inactive means no such curve, though single readings can be large; an effect the other way counts as inactive or inconclusive; further: nearly all actives have a fitted effect of over 50% in size; further: potency means the concentration at half of the fitted maximal effect); settings: HSE-bla HeLa viability, CellTiter-Glo luminescence, 5 h; activity change, negative = cytotoxicity: at 62.6 µM (top of the series)
In short: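 Compounds dissolved in DMSO were added to overnight-plated HSE-bla HeLa cells and left 5 h at 37 C. Cell viability was quantified by luminescence using CellTiter-Glo.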

[12] = qHTS assay to identify small molecule agonists of the peroxisome proliferator-activated receptor delta (PPARd) signaling pathway - cell viability counter screen (AID 743211; active means well fitted curve in the direction sought with a large enough effect in the repeat runs; inconclusive means weak or mixed curves; inactive means no such curve, though single readings can be large; an effect the other way counts as inactive or inconclusive; further: nearly all actives have a fitted effect of over 55% in size; further: potency means the concentration at half of the fitted maximal effect); settings: PPARd-bla HEK293H viability, CellTiter-Glo luminescence, 17 h; activity change, negative = cytotoxicity: at 62.6 µM (top of the series)
In short: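 PPARd-bla HEK293H cells (UAS-beta-lactamase reporter) were treated with compounds for 17 h at 37 C. Viability was then read in the same wells by CellTiter-Glo luminescence after 30 min at room temperature.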

[13] = qHTS assay to identify small molecule antagonists of the peroxisome proliferator-activated receptor gamma (PPARg) signaling pathway - cell viability counter screen (AID 743194; active means well fitted curve in the direction sought with a large enough effect in the repeat runs; inconclusive means weak or mixed curves; inactive means no such curve, though single readings can be large; an effect the other way counts as inactive or inconclusive; further: nearly all actives have a fitted effect of over 55% in size; further: potency means the concentration at half of the fitted maximal effect); settings: PPARg-bla HEK293H viability, CellTiter-Glo luminescence, 17 h, co-treated with 50 nM rosiglitazone; activity change, negative = cytotoxicity: at 62.6 µM (top of the series)
In short: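 Cytotoxicity counter screen in PPARg-bla HEK293H cells, same wells as reporter assay. Compounds plus 50 nM rosiglitazone (final) for 17 h at 37 C, then viability read by CellTiter-Glo luminescence.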

[14] = qHTS assay for small molecule agonists of the antioxidant response element (ARE) signaling pathway (AID 743202; active means well fitted activation curve with a large enough effect in the signal ratio in the repeat runs, not every such curve was filed as active; inconclusive means weak or mixed curves, or effect the other way; inactive means no such curve, though single readings can be large or run the other way; the % refers to the signal ratio; further: potency means the concentration at half of the fitted maximal effect); settings: HepG2 ARE-bla reporter, beta-lactamase FRET, 16 h; activation: at 73.3 µM (top of the series) unless noted
In short: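 HepG2 ARE-bla cells; 16 h treatment at 37 C; FRET-based beta-lactamase fluorescence read after 2 h substrate incubation at room temperature.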

[15] = target: Bile acid receptor (Homo sapiens) (UniProt Q96RI1); experiment: qHTS assay to identify small molecule agonists of the farnesoid-X-receptor (FXR) signaling pathway (AID 743220; active means well fitted activation curve with a large enough effect in the signal ratio in the repeat runs, not every such curve was filed as active; inconclusive means weak or mixed curves, or effect the other way; the % refers to the signal ratio; further: potency means the concentration at half of the fitted maximal effect); settings: HEK293T FXR-UAS-bla, beta-lactamase FRET ratio, 16 h; activation: at 62.6 µM (top of the series) unless noted
In short: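 FXR-UAS-bla HEK 293T cells carrying a UAS-driven beta-lactamase reporter were plated for 5 h at 37C/5% CO2, then exposed to DMSO-dissolved Tox21 10K compounds for 16 h at 37C. A LiveBLAzer B/G FRET substrate was loaded for 2 h at room temperature before fluorescence reading.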

[16] = qHTS assay to identify small molecule antagonists of the farnesoid-X-receptor (FXR) signaling pathway - cell viability counter screen (AID 743221; active means well fitted cell-killing curve with a large enough effect in the repeat runs, not every such curve was filed as active; inconclusive means weak or mixed curves, or effect the other way; inactive means no such curve, though single readings can be large or run the other way; further: potency means the concentration at half of the fitted maximal effect; nearly all actives have a fitted effect of over 50% in size); settings: FXR-bla HEK293T viability, CellTiter-Glo luminescence, 16 h; activity change, negative = cytotoxicity: at 62.6 µM (top of the series)
In short: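 FXR-UAS-bla HEK 293T cells were treated with test compounds plus chenodeoxycholic acid (50 uM final) for 16 h at 37 C. Cell viability in the same wells was then read as CellTiter-Glo luminescence after 30 min at room temperature.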

[17] = activity change, negative = inhibition: at 61 µM (top of the series) unless noted
Tags describe the fitted curve by direction and shape or compound fluorescence and quenching.

UniProt Q03181, sequence (Q03181 whole entry, looked up): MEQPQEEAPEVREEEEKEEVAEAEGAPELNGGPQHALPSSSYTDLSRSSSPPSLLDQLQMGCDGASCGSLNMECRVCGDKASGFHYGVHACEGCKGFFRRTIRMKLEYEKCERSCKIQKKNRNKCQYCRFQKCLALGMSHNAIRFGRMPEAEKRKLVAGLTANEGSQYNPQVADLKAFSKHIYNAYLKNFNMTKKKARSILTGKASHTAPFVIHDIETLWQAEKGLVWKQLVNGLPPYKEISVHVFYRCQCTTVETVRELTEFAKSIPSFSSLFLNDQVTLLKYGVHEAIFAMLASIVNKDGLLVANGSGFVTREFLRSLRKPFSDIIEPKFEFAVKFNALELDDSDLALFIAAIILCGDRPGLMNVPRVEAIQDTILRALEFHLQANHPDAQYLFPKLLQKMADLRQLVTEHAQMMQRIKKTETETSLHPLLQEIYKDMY
UniProt Q96RI1, sequence (Q96RI1 whole entry, looked up): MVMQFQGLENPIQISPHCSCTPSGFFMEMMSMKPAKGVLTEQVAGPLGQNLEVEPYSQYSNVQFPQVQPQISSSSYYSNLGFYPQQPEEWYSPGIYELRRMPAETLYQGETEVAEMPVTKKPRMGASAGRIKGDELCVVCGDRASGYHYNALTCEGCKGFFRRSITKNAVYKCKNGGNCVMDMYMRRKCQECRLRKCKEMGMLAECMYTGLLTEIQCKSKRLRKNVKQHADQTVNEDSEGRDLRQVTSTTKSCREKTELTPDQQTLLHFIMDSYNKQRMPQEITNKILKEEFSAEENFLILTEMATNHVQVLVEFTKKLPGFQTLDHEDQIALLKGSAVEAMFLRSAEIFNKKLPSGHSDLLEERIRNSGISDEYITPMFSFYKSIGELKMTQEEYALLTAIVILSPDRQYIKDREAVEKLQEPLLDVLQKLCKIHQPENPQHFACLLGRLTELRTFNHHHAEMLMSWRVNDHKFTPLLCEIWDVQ
UniProt P37231, sequence (P37231 whole entry, looked up): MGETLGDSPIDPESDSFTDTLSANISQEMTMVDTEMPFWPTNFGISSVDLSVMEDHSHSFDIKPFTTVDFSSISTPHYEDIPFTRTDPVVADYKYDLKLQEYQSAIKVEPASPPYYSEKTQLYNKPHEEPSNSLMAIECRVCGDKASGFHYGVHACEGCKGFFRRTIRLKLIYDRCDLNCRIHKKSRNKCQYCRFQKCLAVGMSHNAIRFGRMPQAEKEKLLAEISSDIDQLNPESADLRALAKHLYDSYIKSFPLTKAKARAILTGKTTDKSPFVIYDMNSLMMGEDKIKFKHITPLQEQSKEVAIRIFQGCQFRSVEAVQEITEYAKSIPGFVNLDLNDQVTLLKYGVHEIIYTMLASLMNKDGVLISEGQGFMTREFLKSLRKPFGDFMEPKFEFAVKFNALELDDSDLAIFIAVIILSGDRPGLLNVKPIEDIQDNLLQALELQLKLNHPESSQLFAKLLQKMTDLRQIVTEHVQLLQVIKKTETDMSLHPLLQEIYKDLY
UniProt P11473, sequence (P11473 whole entry, looked up): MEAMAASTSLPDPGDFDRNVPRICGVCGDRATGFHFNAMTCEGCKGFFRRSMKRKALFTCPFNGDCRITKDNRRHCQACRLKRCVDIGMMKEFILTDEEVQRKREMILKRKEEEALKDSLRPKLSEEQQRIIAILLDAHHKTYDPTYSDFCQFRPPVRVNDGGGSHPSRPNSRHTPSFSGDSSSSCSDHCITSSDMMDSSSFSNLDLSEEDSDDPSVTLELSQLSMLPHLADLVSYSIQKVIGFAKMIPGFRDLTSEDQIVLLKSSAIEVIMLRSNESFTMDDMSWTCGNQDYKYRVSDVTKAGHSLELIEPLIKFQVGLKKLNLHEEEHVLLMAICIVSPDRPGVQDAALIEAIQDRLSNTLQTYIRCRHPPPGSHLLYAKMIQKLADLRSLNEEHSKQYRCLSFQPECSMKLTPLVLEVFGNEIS

CCCC(C)C(=O)OCC (centres undefined)
Potency [1]: inactive
Potency [2]: inconclusive: 58.2 µM [activator]
ratio activity, negative = inhibition [3]: inconclusive: -30.1%
Potency [4]: inactive
Potency [5, 17]: inactive

CC(C)NCC(O)COc1cccc2[nH]ccc12 (centres undefined)
ratio activity, negative = inhibition [1]: inconclusive: 12%
Potency [2]: inactive
Potency [6]: inactive
Potency [7]: inconclusive: 2.98 µM [falling, partial curve, poor fit]

C[C@@H]1C[C@H]2[C@@H]3CCC4=CC(=O)C=C[C@]4(C)[C@@]3(F)[C@@H](O)C[C@]2(C)[C@@]1(O)C(=O)COP(=O)(O)O
Potency [1]: inactive
Potency [8]: inactive
Potency [7]: inactive

CC(=O)c1ccccn1
Potency [1]: inactive and inconclusive: 61.6 µM [activator, partial curve, poor fit]
Potency [6]: inactive
Potency [9]: inconclusive: 2.21 µM [cytotoxic, single point]
activity change, negative = inhibition [10]: inconclusive: 4.13%

C/C=C(\C)C(=O)OCCc1ccccc1
ratio activity, negative = inhibition [1]: inconclusive: 29%
Potency [11]: inactive
Potency [12]: inactive

O=C(O)c1ccccc1Cl
ratio activity, negative = inhibition [1]: inconclusive: -7.26%
Potency [6]: inactive
Potency [4]: inconclusive: 13.8 µM [rising, partial curve, poor fit]

CCCCCC(CC)OC(=O)CCCOc1ccc(Cl)cc1Cl (centres undefined)
Potency [1]: inactive
Potency [6]: inactive

CC(S)C(C)S (centres undefined)
Potency [1]: inactive
ratio activity, negative = inhibition [3]: inconclusive: -8.75% [at 80.4 µM]
activity change, negative = inhibition [5, 17]: inconclusive: 0.213% [at 78.8 µM]

CC(C)CCCCCCc1ccc(OCCOCCO)cc1
Potency [1]: inconclusive: 98.1 µM [activator, partial curve, poor fit]
activity change, negative = inhibition [5, 17]: inconclusive: 36.1% [activator] [at 78.8 µM]

Cc1ccc(S(=O)(=O)NC(=O)NC2CCCCC2)cc1
Potency [13]: inactive

CC(C)(C)C(=O)c1ccccc1
Potency [13]: inconclusive: 0.0347 µM [cytotoxic, full curve, poor fit]

O=C(O)c1cc2ccccc2cc1O
Potency [13]: inconclusive: 0.486 µM [rising, partial curve, poor fit]
Potency [14]: inactive

C=C(C)C(=O)OCCCCCC
Potency [1]: inconclusive: 38.9 µM [activator, partial curve]
Potency [9]: inconclusive: 2.19 µM [cytotoxic, single point]
ratio activity, negative = inhibition [3]: inconclusive: -32.9%
Potency [4]: inactive
Potency [7]: inconclusive: 54.9 µM [activator, single point]
activity change, negative = inhibition [5, 17]: inconclusive: -24.8%

CC(=O)CC(=O)Nc1ccccc1
ratio activity, negative = inhibition [1]: inconclusive: -1.36%
Potency [10]: inactive
activity change, negative = inhibition [5, 17]: inconclusive: -16.2%
activity change, negative = inhibition ([5]; at 61 µM (top of the series)): inactive: 1.29%

C=C(C)C(=O)OCCCCCCCCCCOC(=O)C(=C)C
Potency [1]: inactive
Potency [3]: inactive
Potency [7]: inactive

O=C(c1ccccc1)c1ccccc1O
Potency [13]: inconclusive: 20 µM [cytotoxic, single point]

Cc1cccc(Nc2cc(Cl)nc(SCC(=O)O)n2)c1C
Potency [1]: inactive
Potency [7]: inconclusive: 45 µM
Potency [5, 17]: inconclusive: 28.4 µM [activator, partial curve]

c1ccc2c(c1)Oc1ccccc1S2
Potency [13]: inconclusive: 4.98 µM [cytotoxic, full curve, poor fit]
activity change, negative = cytotoxicity [13]: inconclusive: -40.1% [cytotoxic]
activation [14]: inconclusive: 4.67% [at 94.8 µM]
Potency [11]: inconclusive: 62.7 µM [cytotoxic, single point]
Potency [2]: inconclusive: 55.8 µM [partial curve, poor fit]
Potency [4]: inconclusive: 0.0395 µM [rising, full curve]

CN=C(NC#N)Nc1ccc(C2=NNC(=O)CC2C)cc1 (centres undefined)
Potency [1]: inactive
Potency [9]: inactive
Potency [3]: inactive

CCCOCCC
Potency [1]: inactive
Potency [3]: inconclusive: 195 nM [fluorescent, full curve, poor fit]

CC(C)(C)OCC1CO1 (centres undefined)
ratio activity, negative = inhibition [1]: inconclusive: 7.79% [at 81.1 µM]
Potency [5, 17]: inactive

COc1ccc(Nc2ccc(OC)cc2)cc1
ratio activity, negative = inhibition [1]: inconclusive: -22.8% [at 81.1 µM]
Potency [9]: inconclusive: 25 µM [rising, partial curve, poor fit]
activity change, negative = inhibition [10]: inconclusive: -21.4% [at 81.1 µM]

CC(C)(C)C1(CCc2ccc(Cl)cc2)CO1 (centres undefined)
Potency [1]: inactive
ratio activity, negative = inhibition [3]: inconclusive: 0.117%
Potency [10]: inactive
Potency [4]: inactive
Potency [5, 17]: inactive

Cc1ccc(C(=O)c2ccccc2)cc1
ratio activity, negative = inhibition [1]: inconclusive: -0.176%
Potency [4]: inactive

N#Cc1ccc(C(=O)O)cc1
ratio activity, negative = inhibition [1]: inconclusive: 11.8%
activity change, negative = inhibition [10]: inconclusive: 1.81%
Potency [5, 17]: inactive

CCCCC(CC)COP(=O)(O)OCC(CC)CCCC (centres undefined)
Potency [13]: inconclusive: 61.8 µM [cytotoxic, single point]
Potency [14]: inconclusive: 68.7 µM [falling, single point] and inconclusive: 77 µM [falling, single point]
Potency [8]: inconclusive: 68.7 µM [cytotoxic, single point] and active: 61.1 µM
Potency [2]: inconclusive: 55 µM and inconclusive: 57.1 µM
Potency [12]: active: 55 µM and inconclusive: 11 µM [cytotoxic, partial curve, poor fit]
Potency [9]: inconclusive: 19.5 µM [cytotoxic, partial curve, poor fit]
Potency [3]: inconclusive: 43.7 µM [rising, partial curve] and inconclusive: 43.6 µM [rising, partial curve]
Potency [10]: inconclusive: 39 µM [rising, partial curve] and inconclusive: 43.6 µM [rising, partial curve]
Potency [4]: active: 55 µM and active: 43.6 µM
Potency [15]: inconclusive: 61.8 µM [falling, partial curve, poor fit]
Potency [16]: inconclusive: 61.8 µM [falling, single point]
Potency [7]: inconclusive: 61.8 µM [fluorescent, partial curve] and inconclusive: 43.6 µM [fluorescent, partial curve]
Potency [5, 17]: inconclusive: 54.9 µM [fluorescent]
